Source: publication PMC4336329 (PLoS ONE, 2015)
In all, about 310,000 compounds went through this assay and about 14,000 (4.5%) showed an effect of 50% or more. Effects have a minus sign here. This is one part of the list.

These compounds were tested against human ether-à-go-go-related gene (hERG) potassium channel (human, UniProt Q12809) (assay: primary screen, population patch clamp on CHO cells stably expressing hERG).
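Also: peak tail current of the secondary pulse compared with the same well before compound.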

human ether-à-go-go-related gene (hERG) potassium channel, sequence (Q12809 whole entry, looked up): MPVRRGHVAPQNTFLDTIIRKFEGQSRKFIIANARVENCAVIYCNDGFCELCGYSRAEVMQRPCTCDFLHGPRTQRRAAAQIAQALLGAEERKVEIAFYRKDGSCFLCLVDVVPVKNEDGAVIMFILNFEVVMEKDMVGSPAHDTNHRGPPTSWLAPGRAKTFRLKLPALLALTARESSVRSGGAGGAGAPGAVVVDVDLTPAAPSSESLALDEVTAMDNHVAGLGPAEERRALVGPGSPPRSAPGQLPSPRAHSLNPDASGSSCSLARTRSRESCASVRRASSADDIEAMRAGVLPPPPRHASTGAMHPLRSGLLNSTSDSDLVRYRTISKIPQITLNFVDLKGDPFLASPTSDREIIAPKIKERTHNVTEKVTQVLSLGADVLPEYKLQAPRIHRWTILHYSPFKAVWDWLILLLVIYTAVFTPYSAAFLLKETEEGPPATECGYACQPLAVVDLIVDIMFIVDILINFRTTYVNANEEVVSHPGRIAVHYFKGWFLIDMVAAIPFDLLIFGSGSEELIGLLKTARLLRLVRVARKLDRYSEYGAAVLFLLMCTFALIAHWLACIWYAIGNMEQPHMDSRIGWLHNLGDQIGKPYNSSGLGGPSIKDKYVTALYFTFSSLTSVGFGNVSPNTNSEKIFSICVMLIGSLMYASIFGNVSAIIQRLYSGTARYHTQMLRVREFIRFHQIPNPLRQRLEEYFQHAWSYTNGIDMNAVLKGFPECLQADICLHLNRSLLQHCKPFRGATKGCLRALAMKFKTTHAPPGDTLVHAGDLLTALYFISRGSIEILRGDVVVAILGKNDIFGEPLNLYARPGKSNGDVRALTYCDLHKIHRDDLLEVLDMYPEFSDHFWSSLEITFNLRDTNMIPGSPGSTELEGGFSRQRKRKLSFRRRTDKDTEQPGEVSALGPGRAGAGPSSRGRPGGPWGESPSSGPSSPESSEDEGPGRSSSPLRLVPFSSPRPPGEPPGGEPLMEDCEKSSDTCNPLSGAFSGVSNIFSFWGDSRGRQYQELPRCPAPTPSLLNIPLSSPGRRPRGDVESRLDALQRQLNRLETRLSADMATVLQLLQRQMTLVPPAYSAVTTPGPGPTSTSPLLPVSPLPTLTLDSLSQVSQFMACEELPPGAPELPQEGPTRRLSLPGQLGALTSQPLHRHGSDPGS

| SMILES | hERG current change (%, negative = inhibition) at 10uM [%] |
| --- | --- |
| Cc1cc(C)nc(N/N=C/c2cccc([N+](=O)[O-])c2)n1 | 0.264 |
| COc1cccc(CN2CCN(C3CCN(c4ccccc4F)CC3)CC2CCO)c1 (stereo not drawn) | -74.9 |
| Clc1ccc(-n2nnnc2-c2cnc3ccccc3c2-c2ccccc2)cc1 | 1.26 |
| COCc1cc(C(C)=O)ccc1OC | 8.27 |
| Cc1ccc(S(=O)(=O)c2cn(Cc3ccc(F)cc3)c3cc4c(cc3c2=O)OCO4)cc1 | -55 |
| CCC(=O)O.O=C(Nc1cccc(C2=NCCN2)c1)Nc1cccc(C2=NCCN2)c1 | 1.17 |
| CN(C)c1ccc2nsnc2c1[N+](=O)[O-] | -4.4 |
| CCC1(CC)C(=O)NC(=O)NC1=Nc1cccc(OC)c1 | 4.6 |
| c1ccc(OCc2nc(-c3ccncc3)no2)cc1 | -21.6 |
| COc1ccc(CNC(=O)CCN2C(=O)c3ccccc3C2=O)cc1OC | 16.7 |
| CC1=NOC(=O)/C1=C/c1ccc2c(c1)OCO2 | 44.8 |
| O=S(=O)(Nc1ccc(-c2cn3cccnc3n2)cc1)c1ccccc1 | 9.2 |
| Clc1ccccc1N1CCN(c2ncnc3nc[nH]c23)CC1 | 14.1 |
| O=C(Nc1cccc(Br)c1)c1ccc(CSc2ccccc2)cc1 | 3.37 |
| O=C(OCCN1CCN(C2=NS(=O)(=O)c3ccccc32)CC1)c1ccccc1F | -16.9 |
| Cn1cccc1C(=O)NC(=O)COC(=O)c1ccccc1Sc1ccccc1C#N | -5.81 |
| COC(=O)c1cc(NC(=O)CC2C(=O)NCCN2C(=O)c2ccc(F)cc2)cc(C(=O)OC)c1 (stereo not drawn) | 11.9 |
| O=c1/c(=C\c2ccc(F)cc2)sc2n1CCCN=2 | -13.2 |
| O=C(C1=C[C@@H](c2ccccc2)C[C@@H](OCc2ccc(CO)cc2)O1)N1CCOCC1 | -45 |

| SMILES | hERG current change (%, negative = inhibition) at 10uM [%] |
| --- | --- |
| CC(=O)Nc1ccc(/C(C)=N/NC(=O)CN(c2ccccc2Br)S(C)(=O)=O)cc1 | -4.13 |
| CCCOc1ccc(C(=O)Nc2ccc(CN3CCOCC3)cc2)cc1 | 8.46 |
| O=c1[nH]c(C2CCCN(S(=O)(=O)Cc3ccccc3)C2)nc2c1nnn2Cc1cccc(Cl)c1 (stereo not drawn) | 28.5 |
| O=C(Cn1c(CN2CCCCC2)nc2ccccc2c1=O)NC1CCCCC1 | -1.03 |
| Cc1cccc(CN2C[C@]34CC[C@@H](C[C@@H]3S2(=O)=O)O4)c1 | 7.08 |
| COc1ccc(N2CCN(C(=O)c3[nH]c4ccc(OC)cc4c3C)CC2)cc1 | 7.82 |
| O=C(CNC(=O)c1ccc(Cl)cc1)c1ccc(Br)cc1 | 7.04 |
| CCCCCc1cc(=O)oc2c(C(CCN3CCCCC3)c3ccc(OC)cc3)c(OC)cc(OC)c12 (stereo not drawn) | -59.1 |
| Cc1cc(N2CC34C=CC(O3)C(C(=O)O)C4C2=O)no1 (stereo not drawn) | 2.22 |
| CC(=O)c1cccc(NC(=O)c2cccc(N3C(=O)c4ccccc4C3=O)c2)c1 | -10.5 |
| CCN(CC)c1ccc(C=C2C(=O)N(C)C(=S)N(C)C2=O)o1 | 7.37 |
| CCOC(=O)C1CCN(C2=NC(=O)/C(=C/c3ccc(O)cc3)S2)CC1 | -67.1 |
| CCC(=O)N1CCN(c2ccc(Cl)cc2NC(=O)c2ccc(N3CCCC3)c([N+](=O)[O-])c2)CC1 | -6.9 |
| COc1ccc(/C=C(/NC(=O)c2ccccc2)C(=O)NC2CCS(=O)(=O)C2)cc1 (stereo not drawn) | -5.25 |
| O=C(NC1CCCCCC1)c1nnc(Cc2ccc(Cl)cc2)o1 | 1.29 |
| Cn1c(N)c(C(=O)COC(=O)c2cc(C3CC3)nc3ccccc23)c(=O)n(Cc2ccccc2)c1=O | 38 |
| O=c1c2ccccc2nc2n1CCC2O (stereo not drawn) | 5.26 |
| Cc1cc(C)c(NC(=O)CN(C2CCCCC2)C2CCCCC2)c(C)c1 | -8.27 |
| Cc1cc(C)n(C(=O)C(C)N2C(=O)c3ccccc3C2=O)n1 (stereo not drawn) | -9.79 |

| SMILES | hERG current change (%, negative = inhibition) at 10uM [%] |
| --- | --- |
| CCC1CCCCN1C(=O)CSc1nnc(-c2ccc(Cl)s2)o1 (stereo not drawn) | -18.7 |
| Cc1cc(C(=O)COC(=O)C2=COCCO2)c(C)n1-c1cccc(F)c1 | -46.4 |
| CC(=O)c1cccc(S(=O)(=O)N2CCC(c3nc4ccccc4[nH]3)CC2)c1 | -56.6 |
| CCCn1ncc(OC)c(Cl)c1=O | 11.4 |
| COC(=O)c1c(NC(=O)CC2SC(N)=NC2=O)sc2c1CCCC2 (stereo not drawn) | 8.98 |
| CCOC(=O)C1(Cc2ccccc2)CCN(Cc2cc(OC)c3c(c2)OCO3)CC1 | -60.7 |
| O=C(O)c1cc(NN=C2c3ccccc3-c3ccccc32)ccc1Cl | 13.7 |
| O=C(Cc1nnc(NC(=O)c2ccccc2)s1)N/N=C/c1cccc(O)c1 | 15.5 |
| CCOC(=O)CSc1nc2sc3c(c2c(=O)n1-c1ccccc1)CCN(C(C)C)C3 | 16.1 |
| Cc1cc(NC(=O)CN2C(=O)NC(Cc3ccccc3)C2=O)no1 (stereo not drawn) | -0.763 |
| CCN1CCN(CCC(=O)Nc2cccc(OC)c2)CC1.Cl | -10.6 |
| Nn1c(SCC(=O)Nc2ccc(F)cc2F)nnc1C1CCCCC1 | -19.1 |
| CCc1cc2c(N[C@@H](Cc3ccccc3)C(=O)O)ncnc2s1 | 20.1 |
| Clc1cc(/C=N\NC2=NCCN2)cc(Cl)n1 | -20 |
| Cc1ccc(OCC(=O)NN2C(=O)c3ccccc3C2=O)cc1 | -16.9 |
| Cc1ccc(Cn2ncc(C)c2N)o1 | 16.3 |
| Nn1c(SCC(=O)N2CCCCC2)nnc1-c1ccncc1 | 14.6 |
| CCOC(=O)c1c(C)c(C(=O)NCCOC)c(C)n1CC | -4.8 |
| COc1ccc(S(=O)(=O)N2c3ccccc3NC(=O)CC2C)cc1 (stereo not drawn) | 9.7 |
